# Reference: paper PMC12820563
# The other results are listed elsewhere or left out. The list includes weakly bound sequences.
# Biological target: T1, MBP-FoxP3dN (UniProt Q99JB6)
# T1 sequence: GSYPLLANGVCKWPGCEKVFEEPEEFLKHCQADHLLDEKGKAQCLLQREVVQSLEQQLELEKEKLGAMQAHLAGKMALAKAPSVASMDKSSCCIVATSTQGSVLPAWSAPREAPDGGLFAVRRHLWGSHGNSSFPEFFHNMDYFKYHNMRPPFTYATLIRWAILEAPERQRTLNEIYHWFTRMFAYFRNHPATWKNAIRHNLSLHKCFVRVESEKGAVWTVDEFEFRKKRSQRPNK
# Test: PD-seq (MBP pull-down with sequencing)
# Conditions: 20 mM Tris-HCl pH 7.5, 100 mM NaCl, 1.5 mM MgCl2, 0.4 uM protein, 0.1 uM dsDNA library, 30 min, room temperature, amylose pull-down; high values mean tight binding; double strand, one strand shown
row,Sequence,binding signal (RPM ratio (pull-down/input))
1,GATGATTGTTCTCCCAGCTGATGAATTGTGAGGGTCGAGTAAACAAATTTTCCTAATCTTTCTGTTCAAGCGCCATCTAC,0.555
2,GATGATTGTTCTCCCAGCTGATGAATTATCACTGTCGAGTAAACAAATTTTCCTAATCTTTCTGTTCAAGCGCCATCTAC,0.395
3,GATGATTGTTCTCCCAGCTGATGAATTCGCGTAATCGAGTAAACAAATTTTCCTAATCTTTCTGTTCAAGCGCCATCTAC,0.717
4,GATGATTGTTCTCCCAGCTGATGAATTTCGGTATTCGAGTAAACAAATTTTCCTAATCTTTCTGTTCAAGCGCCATCTAC,1.11
5,GATGATTGTTCTCCCAGCTGATGAATTGTTGGCGTCGAGTAAACAAATTTTCCTAATCTTTCTGTTCAAGCGCCATCTAC,2.29
6,GATGATTGTTCTCCCAGCTGATGAATTTCAATTTTCGAGTAAACAAATTTTCCTAATCTTTCTGTTCAAGCGCCATCTAC,0.494
7,GATGATTGTTCTCCCAGCTGATGAATTTAGCCTCTCGAGTAAACAAATTTTCCTAATCTTTCTGTTCAAGCGCCATCTAC,5.79
8,GATGATTGTTCTCCCAGCTGATGAATTATTTACATCGAGTAAACAAATTTTCCTAATCTTTCTGTTCAAGCGCCATCTAC,3.48
9,GATGATTGTTCTCCCAGCTGATGAATTTTGTATTTCGAGTAAACAAATTTTCCTAATCTTTCTGTTCAAGCGCCATCTAC,5.33
10,GATGATTGTTCTCCCAGCTGATGAATTTGACCCCTCGAGTAAACAAATTTTCCTAATCTTTCTGTTCAAGCGCCATCTAC,0.463
11,GATGATTGTTCTCCCAGCTGATGAATTGACAGATTCGAGTAAACAAATTTTCCTAATCTTTCTGTTCAAGCGCCATCTAC,0.325
12,GATGATTGTTCTCCCAGCTGATGAATTCCACAGTTCGAGTAAACAAATTTTCCTAATCTTTCTGTTCAAGCGCCATCTAC,0.317
13,GATGATTGTTCTCCCAGCTGATGAATTATGACAATCGAGTAAACAAATTTTCCTAATCTTTCTGTTCAAGCGCCATCTAC,0.761
14,GATGATTGTTCTCCCAGCTGATGAATTCTTCGCGTCGAGTAAACAAATTTTCCTAATCTTTCTGTTCAAGCGCCATCTAC,0.432
15,GATGATTGTTCTCCCAGCTGATGAATTGATATAGTCGAGTAAACAAATTTTCCTAATCTTTCTGTTCAAGCGCCATCTAC,0.661
16,GATGATTGTTCTCCCAGCTGATGAATTAGATATTTCGAGTAAACAAATTTTCCTAATCTTTCTGTTCAAGCGCCATCTAC,1.2
17,GATGATTGTTCTCCCAGCTGATGAATTCAGTTGCTCGAGTAAACAAATTTTCCTAATCTTTCTGTTCAAGCGCCATCTAC,1.69
18,GATGATTGTTCTCCCAGCTGATGAATTGATTAAGTCGAGTAAACAAATTTTCCTAATCTTTCTGTTCAAGCGCCATCTAC,0.265
19,GATGATTGTTCTCCCAGCTGATGAATTCCGATTGTCGAGTAAACAAATTTTCCTAATCTTTCTGTTCAAGCGCCATCTAC,1.93
20,GATGATTGTTCTCCCAGCTGATGAATTACGCCGATCGAGTAAACAAATTTTCCTAATCTTTCTGTTCAAGCGCCATCTAC,0.687
21,GATGATTGTTCTCCCAGCTGATGAATTACGAGTCTCGAGTAAACAAATTTTCCTAATCTTTCTGTTCAAGCGCCATCTAC,1.24

row,Sequence,binding signal (RPM ratio (pull-down/input))
1,GATGATTGTTCTCCCAGCTGATGAATTTCTGCTGTCGAGTAAACAAATTTTCCTAATCTTTCTGTTCAAGCGCCATCTAC,0.378
2,GATGATTGTTCTCCCAGCTGATGAATTAAGTTGTTCGAGTAAACAAATTTTCCTAATCTTTCTGTTCAAGCGCCATCTAC,4.89
3,GATGATTGTTCTCCCAGCTGATGAATTCCGGAGATCGAGTAAACAAATTTTCCTAATCTTTCTGTTCAAGCGCCATCTAC,0.241
4,GATGATTGTTCTCCCAGCTGATGAATTACCGACCTCGAGTAAACAAATTTTCCTAATCTTTCTGTTCAAGCGCCATCTAC,0.301
5,GATGATTGTTCTCCCAGCTGATGAATTTTTAAAATCGAGTAAACAAATTTTCCTAATCTTTCTGTTCAAGCGCCATCTAC,0.24
6,GATGATTGTTCTCCCAGCTGATGAATTGCGCCATTCGAGTAAACAAATTTTCCTAATCTTTCTGTTCAAGCGCCATCTAC,6.51
7,GATGATTGTTCTCCCAGCTGATGAATTAAAGAAATCGAGTAAACAAATTTTCCTAATCTTTCTGTTCAAGCGCCATCTAC,0.264
8,GATGATTGTTCTCCCAGCTGATGAATTCAACTGCTCGAGTAAACAAATTTTCCTAATCTTTCTGTTCAAGCGCCATCTAC,0.33
9,GATGATTGTTCTCCCAGCTGATGAATTCACGACATCGAGTAAACAAATTTTCCTAATCTTTCTGTTCAAGCGCCATCTAC,0.488
10,GATGATTGTTCTCCCAGCTGATGAATTTGCATAATCGAGTAAACAAATTTTCCTAATCTTTCTGTTCAAGCGCCATCTAC,1.36
11,GATGATTGTTCTCCCAGCTGATGAATTTACGAACTCGAGTAAACAAATTTTCCTAATCTTTCTGTTCAAGCGCCATCTAC,0.335
12,GATGATTGTTCTCCCAGCTGATGAATTAGCCGTGTCGAGTAAACAAATTTTCCTAATCTTTCTGTTCAAGCGCCATCTAC,0.436
13,GATGATTGTTCTCCCAGCTGATGAATTTAGCGGATCGAGTAAACAAATTTTCCTAATCTTTCTGTTCAAGCGCCATCTAC,0.292
14,GATGATTGTTCTCCCAGCTGATGAATTCGAGATTTCGAGTAAACAAATTTTCCTAATCTTTCTGTTCAAGCGCCATCTAC,0.339
15,GATGATTGTTCTCCCAGCTGATGAATTCTTCGTTTCGAGTAAACAAATTTTCCTAATCTTTCTGTTCAAGCGCCATCTAC,0.329
16,GATGATTGTTCTCCCAGCTGATGAATTTGCCAACTCGAGTAAACAAATTTTCCTAATCTTTCTGTTCAAGCGCCATCTAC,0.47
17,GATGATTGTTCTCCCAGCTGATGAATTCTAGGATTCGAGTAAACAAATTTTCCTAATCTTTCTGTTCAAGCGCCATCTAC,0.262
18,GATGATTGTTCTCCCAGCTGATGAATTCAGGGCTTCGAGTAAACAAATTTTCCTAATCTTTCTGTTCAAGCGCCATCTAC,0.387
19,GATGATTGTTCTCCCAGCTGATGAATTGGAGACGTCGAGTAAACAAATTTTCCTAATCTTTCTGTTCAAGCGCCATCTAC,0.273
20,GATGATTGTTCTCCCAGCTGATGAATTGCATGACTCGAGTAAACAAATTTTCCTAATCTTTCTGTTCAAGCGCCATCTAC,0.831
21,GATGATTGTTCTCCCAGCTGATGAATTCGCAAAATCGAGTAAACAAATTTTCCTAATCTTTCTGTTCAAGCGCCATCTAC,0.228

row,Sequence,binding signal (RPM ratio (pull-down/input))
1,GATGATTGTTCTCCCAGCTGATGAATTTGTGACTTCGAGTAAACAAATTTTCCTAATCTTTCTGTTCAAGCGCCATCTAC,1.88
2,GATGATTGTTCTCCCAGCTGATGAATTATGAGGATCGAGTAAACAAATTTTCCTAATCTTTCTGTTCAAGCGCCATCTAC,0.385
3,GATGATTGTTCTCCCAGCTGATGAATTAATTACGTCGAGTAAACAAATTTTCCTAATCTTTCTGTTCAAGCGCCATCTAC,0.77
4,GATGATTGTTCTCCCAGCTGATGAATTTGGCACGTCGAGTAAACAAATTTTCCTAATCTTTCTGTTCAAGCGCCATCTAC,1.37
5,GATGATTGTTCTCCCAGCTGATGAATTGACAACGTCGAGTAAACAAATTTTCCTAATCTTTCTGTTCAAGCGCCATCTAC,0.517
6,GATGATTGTTCTCCCAGCTGATGAATTACCAACGTCGAGTAAACAAATTTTCCTAATCTTTCTGTTCAAGCGCCATCTAC,0.44
7,GATGATTGTTCTCCCAGCTGATGAATTATAAGTTTCGAGTAAACAAATTTTCCTAATCTTTCTGTTCAAGCGCCATCTAC,0.489
8,GATGATTGTTCTCCCAGCTGATGAATTCTCTATGTCGAGTAAACAAATTTTCCTAATCTTTCTGTTCAAGCGCCATCTAC,0.308
9,GATGATTGTTCTCCCAGCTGATGAATTCCAGATGTCGAGTAAACAAATTTTCCTAATCTTTCTGTTCAAGCGCCATCTAC,0.326
10,GATGATTGTTCTCCCAGCTGATGAATTTTGATCATCGAGTAAACAAATTTTCCTAATCTTTCTGTTCAAGCGCCATCTAC,0.562
11,GATGATTGTTCTCCCAGCTGATGAATTGGACGATTCGAGTAAACAAATTTTCCTAATCTTTCTGTTCAAGCGCCATCTAC,0.28
12,GATGATTGTTCTCCCAGCTGATGAATTCGTCTAGTCGAGTAAACAAATTTTCCTAATCTTTCTGTTCAAGCGCCATCTAC,0.451
13,GATGATTGTTCTCCCAGCTGATGAATTCCGCAACTCGAGTAAACAAATTTTCCTAATCTTTCTGTTCAAGCGCCATCTAC,6.11
14,GATGATTGTTCTCCCAGCTGATGAATTCAAAAATTCGAGTAAACAAATTTTCCTAATCTTTCTGTTCAAGCGCCATCTAC,0.233
15,GATGATTGTTCTCCCAGCTGATGAATTTGGTGCTTCGAGTAAACAAATTTTCCTAATCTTTCTGTTCAAGCGCCATCTAC,1.59
16,GATGATTGTTCTCCCAGCTGATGAATTTAGTAGTTCGAGTAAACAAATTTTCCTAATCTTTCTGTTCAAGCGCCATCTAC,2.33
17,GATGATTGTTCTCCCAGCTGATGAATTTGTTCCGTCGAGTAAACAAATTTTCCTAATCTTTCTGTTCAAGCGCCATCTAC,2.26
18,GATGATTGTTCTCCCAGCTGATGAATTTAGGAAATCGAGTAAACAAATTTTCCTAATCTTTCTGTTCAAGCGCCATCTAC,0.384
19,GATGATTGTTCTCCCAGCTGATGAATTGTCACACTCGAGTAAACAAATTTTCCTAATCTTTCTGTTCAAGCGCCATCTAC,0.583
20,GATGATTGTTCTCCCAGCTGATGAATTTTGCGTCTCGAGTAAACAAATTTTCCTAATCTTTCTGTTCAAGCGCCATCTAC,5.4
21,GATGATTGTTCTCCCAGCTGATGAATTTTATAAATCGAGTAAACAAATTTTCCTAATCTTTCTGTTCAAGCGCCATCTAC,0.293
